Experimental data reported in patent US20250243260A1.

B1: CD80_186-Fc (Fc fusion)
chain: VIHVTKKVKEWATLSCGHNVSVEELAQTRIYWQKEKKMVLTMMSGDMNIWPEYKNRTIFDITHNLSIVILGLRPSDEGTYECVVLKKEKDAFKREHLAEVTLSVKADGSGGGGS[omitted - human IgG4 Fc with S228P (EU numbers)]
B2: CD80_192-Fc (Fc fusion)
chain: B1 chain with K7N, W11V, E35D, H63N, G71A, K87Y, T101R
B3: CD80_202-Fc (Fc fusion)
chain: B1 chain with K7H, W11V, H18L, V20I, T28Y, D46S, H63N, K87Y
B4: CD80_204-Fc (Fc fusion)
chain: VIHVTKEVKEVATLSCGVNISVEELAQYRIYWQKGKKMVLTMMSGDVNIWPEYKNRTIFDITNNLSIVILALEPSDEGTYECVVLKYEKDAFKREHLAEVTLSVKADGSGGGGS[omitted - human IgG4 Fc with S228P (EU numbers)]
B5: CD80_213-Fc (Fc fusion)
chain: B1 chain with K7E, W11Y, H63N, V68T, G71A, K87Y
B6: CD80_226-Fc (Fc fusion)
chain: B4 chain with K9R, V18H, I20V, A26T, G35A, V47L, A71G, E73R
B7: CD80_227-Fc (Fc fusion)
chain: B1 chain with K7E, T28H, D46Q, H63N, V68L, G71A, L85E, K87Y
B8: CD80_167-Fc (Fc fusion)
chain: B1 chain with K7E, W11Y, M42I, M47V, H63N, K87Y
B9: CD80_170-Fc (Fc fusion)
chain: B4 chain with K9N, E10G, V18H, I20V, Y28T, D46E, V68M, E73R

Each binder was assayed against human PD-L1 (human) (UniProt Q9NZQ7) (assay: flow cytometry, SCC152/PD-L1 cells).
Chain of UniProt Q9NZQ7 (Q9NZQ7 19-290): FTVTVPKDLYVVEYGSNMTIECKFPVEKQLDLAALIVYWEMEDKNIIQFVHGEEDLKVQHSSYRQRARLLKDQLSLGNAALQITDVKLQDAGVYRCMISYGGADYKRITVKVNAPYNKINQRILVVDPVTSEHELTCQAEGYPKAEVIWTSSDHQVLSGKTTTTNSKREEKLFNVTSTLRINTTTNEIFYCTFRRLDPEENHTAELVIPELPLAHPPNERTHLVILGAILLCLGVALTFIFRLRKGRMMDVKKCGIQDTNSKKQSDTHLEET

Row | Binder | Anti-Human Fc (MFI) at 0.8 nM [MFI] | Anti-Human Fc (MFI) at 4 nM [MFI] | Anti-Human Fc (MFI) at 20 nM [MFI] | Anti-Human Fc (MFI) at 100 nM [MFI] | fold change vs WT CD80 @20 nM [fold]
1 | B1 | 762 | 766 | 900 | 1180 | 
2 | B2 | 607 | 661 | 818 | 1120 | 1.2
3 | B3 | 700 | 789 | 951 | 1140 | 
4 | B4 | 662 | 665 | 831 | 1300 | 1.2
5 | B5 | 792 | 839 | 1024 | 1180 | 
6 | B6 | 949 | 1130 | 1180 | 1370 | 
7 | B7 | 720 | 756 | 943 |  | 
8 | B8 | 643 | 665 | 736 | 1140 | 
9 | B9 | 843 | 976 | 1070 | 1220 | 

Positions count from the first letter of the chain named.
